About 2,200 (0.71%) of roughly 310,000 compounds showed an effect of 50% or more. The effect is printed as a negative number. The list shows a part of the results.
Target: human ether-à-go-go-related gene (hERG) potassium channel (human, UniProt Q12809)
Assay: primary screen, population patch clamp on CHO cells stably expressing hERG

Sequence of human ether-à-go-go-related gene (hERG) potassium channel (Q12809 whole entry, looked up): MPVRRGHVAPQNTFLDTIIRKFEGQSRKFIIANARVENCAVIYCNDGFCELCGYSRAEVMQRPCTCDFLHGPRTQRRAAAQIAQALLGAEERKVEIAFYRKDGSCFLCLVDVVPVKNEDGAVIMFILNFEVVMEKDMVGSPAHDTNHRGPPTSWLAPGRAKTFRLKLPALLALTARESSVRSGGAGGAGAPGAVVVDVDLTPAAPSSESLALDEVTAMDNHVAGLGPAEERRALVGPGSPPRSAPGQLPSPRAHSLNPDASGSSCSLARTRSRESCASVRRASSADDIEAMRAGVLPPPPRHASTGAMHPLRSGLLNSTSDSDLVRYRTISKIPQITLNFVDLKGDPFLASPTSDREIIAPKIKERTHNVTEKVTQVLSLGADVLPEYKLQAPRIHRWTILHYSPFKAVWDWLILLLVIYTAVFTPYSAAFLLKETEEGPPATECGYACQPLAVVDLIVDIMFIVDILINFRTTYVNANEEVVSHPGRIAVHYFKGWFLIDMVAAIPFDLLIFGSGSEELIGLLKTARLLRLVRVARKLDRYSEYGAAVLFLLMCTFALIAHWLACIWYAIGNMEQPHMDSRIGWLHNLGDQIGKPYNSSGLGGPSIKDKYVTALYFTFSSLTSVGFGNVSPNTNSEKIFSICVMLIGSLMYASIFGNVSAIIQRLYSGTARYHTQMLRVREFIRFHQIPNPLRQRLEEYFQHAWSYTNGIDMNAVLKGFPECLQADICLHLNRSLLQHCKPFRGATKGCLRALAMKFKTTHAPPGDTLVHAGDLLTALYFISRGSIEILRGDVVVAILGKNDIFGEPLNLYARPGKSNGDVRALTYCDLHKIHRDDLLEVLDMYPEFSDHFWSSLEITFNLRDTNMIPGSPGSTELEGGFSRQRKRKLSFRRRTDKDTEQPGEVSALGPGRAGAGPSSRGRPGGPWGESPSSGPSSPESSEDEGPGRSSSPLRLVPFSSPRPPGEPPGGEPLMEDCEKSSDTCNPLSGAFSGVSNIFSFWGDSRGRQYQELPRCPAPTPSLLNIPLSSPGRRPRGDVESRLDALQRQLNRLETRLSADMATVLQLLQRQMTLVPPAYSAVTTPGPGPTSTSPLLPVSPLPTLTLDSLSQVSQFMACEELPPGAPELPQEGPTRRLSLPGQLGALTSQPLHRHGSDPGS

SMILES	hERG current change (%, negative = inhibition) at 1uM [%]
O=C(Nc1ccccc1F)c1ccc(S(=O)(=O)N2CCCCCC2)cc1	12.7
O=c1[nH]c(C2C3CC4CC(C3)CC2C4)nc2ccccc12 (stereo not shown)	6.8
CC1CN(S(=O)(=O)c2cccc3nsnc23)CC(C)O1 (stereo not shown)	6.75
O=C(NCc1ccccc1)C(c1ccc(F)cc1)N(Cc1ccc2c(c1)OCO2)C(=O)Cn1nnc(-c2cccs2)n1 (stereo not shown)	3.61
O=C(OCc1nc2ccc(Cl)cc2n1CCO)c1ccc2c(c1)OCO2	7.96
COc1ccc(N2CCN(Cc3nc(-c4ccccc4)no3)CC2)cc1	3
CSc1nc2ccccc2n1C(=O)NC1CCCCC1	9.3
CCN(Cc1nc2ccccc2n1C)c1ccccc1	2.77
CCCC(=O)Nc1nn(CCC)c2nc3ccccc3cc12	1.8
CCn1ncc(C2=NOC(C(=O)NCc3ccc(Cl)cc3)C2)c1C (stereo not shown)	-1.6
COc1ccc(S(=O)(=O)N(C)CC(=O)NCCCN2CCOCC2)cc1Cl	7.42
Clc1c(-c2ccccc2)nc2ccccn12	6.13
COc1ccc(-c2noc(CNC(=O)Nc3ccc(F)cc3)n2)cc1	4.52
O=C(c1cn(Cc2ccccc2)c2ccccc12)C1CC1	-6.68
N#Cc1ccc(CSc2ncccn2)cc1	6.56
Cc1ccc(SCCC(=O)N2CCN(S(=O)(=O)c3ccccc3)CC2)cc1	-0.0008
Cc1cccc(/C=N/NC(=O)c2ccncc2)n1	16.4
Cc1ccc(O)c(-c2cc(C(=O)Nc3ccc(S(=O)(=O)N4CC(C)OC(C)C4)cc3)[nH]n2)c1 (stereo not shown)	9.38
O=C1C(Cl)=CC(=Nc2ccc([O-])cc2)C=C1Cl.[Na+]	0.505
CC1CN(C(=O)c2cc(S(=O)(=O)N3CCN(c4ccccc4)CC3)ccc2Cl)CC(C)O1 (stereo not shown)	-5.44
CN(C)c1ccc(/C=[N+](\[O-])C2N(c3ccccc3)C(=S)SC2(C)C)cc1 (stereo not shown)	-6.26
COC(=O)N/N=C(\CCC(=O)O)c1cccs1	13.2
COc1ccccc1NC(=O)Cc1nnc(SCC(=O)Nc2nccs2)n1C	15.5

SMILES	hERG current change (%, negative = inhibition) at 1uM [%]
O=C(N[C@@H](Cc1ccccc1)C(=O)O)c1cccs1	19.5
N/C(=N\OC(=O)COc1ccc(Cl)cc1)c1ccc(Cl)cc1	12.8
CCCc1c(O)nc(SC2CC(=O)N(c3ccc(OC)cc3)C2=O)[nH]c1=O.Cl (stereo not shown)	7.53
CC(=O)c1cccc(CN2CCN(C3CCCC3)C(CCO)C2)c1 (stereo not shown)	-0.585
CN(C)S(=O)(=O)N1CCC(Oc2ccc(C(=O)NC3Cc4ccccc4C3)cc2)CC1	13.4
O=C1CC(SC2=NCCS2)C(=O)N1c1cccc(Cl)c1Cl (stereo not shown)	13.8
O=C(COC(=O)Cn1cnc2ccccc21)Nc1cc2c(cc1Cl)C(=O)c1ccccc1C2=O	17.2
CCC(C)N(NC(C)=O)c1nc(Cl)nc(NC(C)C)n1 (stereo not shown)	-8.28
CCOc1ccccc1C=Nc1ccccc1C(=O)Nc1ccccc1	-3.74
CNC(=S)NNC(=O)c1ccccc1Br	15.2
COC(=O)c1sc(-c2ccc(C(C)(C)C)cc2)cc1NC(=O)c1ccccc1C(=O)O	3.25
COc1cc(C2c3c(oc4ccccc4c3=O)C(=O)N2Cc2ccncc2)ccc1O (stereo not shown)	4.07
Cc1ccc(/C=C2/Sc3ccccc3N(CC(=O)NCCCOC(C)C)C2=O)cc1	1.52
COc1ccc(C(CC(=O)N2CCCC2)c2c(OC)cc(OC)c3ccc(=O)oc23)cc1 (stereo not shown)	8.69
CCCc1cc(=O)oc2c(CN3CCOCC3)c(O)ccc12	6.31
COc1cccc(/C=N/NC(=O)c2cccc([N+](=O)[O-])c2)c1OS(=O)(=O)c1ccccc1	-3.73
CCOC(=O)C1CN(S(=O)(=O)c2ccc(Cl)cc2)c2cc(S(=O)(=O)CC)ccc2O1 (stereo not shown)	-1.55
COc1ccc(-c2nc(-c3cccs3)no2)cc1	12.4
O=C(CCCCCn1c(=S)[nH]c2ccc(N3CCOCC3)cc2c1=O)NCCc1ccccc1	9.01
COc1cc(C2NC(=O)CCC2[N+](=O)[O-])cc(OC)c1OC (stereo not shown)	13.9
CC(=O)Nc1cccc(-c2nc3ccccc3[nH]2)c1	7.47
CCOc1cc(CN2CCN(C(=O)c3ccco3)CC2)ccc1OC	-5.41
Clc1ccc(CSc2nnc(CNc3cccc(Cl)c3)o2)cc1	6.04

SMILES	hERG current change (%, negative = inhibition) at 1uM [%]
Cc1ccc(-n2c(C)cc(=O)cc2C)c(C)c1	1.73
COC(=O)C1C(=O)NCC1c1ccc(C)cc1 (stereo not shown)	11.9
CSCCC(NC(=O)COc1ccccc1)C(=O)NCc1cccs1 (stereo not shown)	-4.12
Cc1cc(C)cc(OCC(=O)OCCN2C(=O)c3ccccc3C2=O)c1	-1.93
NC(=O)c1ccc(NC(=O)COC(=O)CCSc2ccccc2)cc1	13.9
O=C(COC(=O)c1ccc(F)cc1)Nc1ccc(Cl)cn1	3.55
COCCN(C(=S)Nc1ccc(OC)cc1)C(C)c1cccs1 (stereo not shown)	7.62
Cc1ccc(NC(=O)CSc2nnc(-c3ccccc3C)o2)cc1C	7.96
CCOc1ccc(OCC)c(NC(=O)CSCCc2ccccn2)c1	6.04
COc1cc(/C=N/n2nnnc2N)ccc1OC(C)C	9.84
O=S(=O)(N/N=C/c1cccc(OC2CSC2)c1)c1ccccc1	1.46
O=C(Cc1cccs1)NCCCc1ccccc1	6.67
CC1=NN(c2ccc(C)cc2C)C(=O)C1C(c1cccc(O)c1)C1C(=O)N(c2ccc(C)cc2C)N=C1C (stereo not shown)	1.17
Cc1cccc(NC(=O)COc2ccc3oc4c(c3c2)CCCC4)n1	13.2
O=C(/C=C/c1ccc2c(c1)OCO2)Nc1cc(S(=O)(=O)N2CCOCC2)ccc1N1CCOCC1	-11.9
C=CCNC(=O)CSc1nc2cc(C(=O)OCC)ccc2n1CC	13.7
O=C(C1=C[C@@H](C2CCCCC2)C[C@@H](OCCCCO)O1)N1CCOCC1	8.18
CCOC(=O)c1ccccc1NC(=O)CSc1nnc(COc2ccccc2)n1CC	-8.55
Cc1cccc(/C=N/n2c(-c3ccccn3)n[nH]c2=S)c1	14.4
Cc1c(C(=O)Nc2ccccc2C(=O)N2CCOCC2)cccc1[N+](=O)[O-]	6.85
CCCCNC(=O)N(C)c1nc2ccccc2s1	1.8
Cc1nn(-c2ccccc2)c(N)c1C1(O)C(=O)N(C)c2ccccc21 (stereo not shown)	15.7
O=C(NC1CCCCCCC1)C1CCC(CNc2c(N3CCCC3)c(=O)c2=O)CC1 (stereo not shown)	11.4

SMILES	hERG current change (%, negative = inhibition) at 1uM [%]
COc1cc(C(C[N+](=O)[O-])c2c(-c3ccccc3)cc3ccccn23)cc(OC)c1OC (stereo not shown)	13.5
Cc1cccc(OCc2nnc(SCC(=O)N(C(C)C)C(C)C)n2Cc2ccco2)c1C	-16
O=C(O)CSc1nnc(-c2ccc(Cl)cc2Cl)n1Cc1ccccc1	17.6
CC1CCN(CC(=O)Nc2nccs2)CC1	15.2
O=S(=O)(Nc1ncccc1O)c1ccc(Cl)cc1	-0.0709
O=C(Nc1ccc(Oc2ccccc2)cc1)C1CCN(c2c3c(nc4ncnn24)CCC3)CC1	-20.2
COc1cccc(C(=O)NC(Cc2ccccc2)c2ccc3c(c2)OCCCO3)c1 (stereo not shown)	5.61
Cc1cccc(CC(=O)Nc2c3c(nn2-c2cccc(Cl)c2)CS(=O)C3)c1 (stereo not shown)	1.55
CCCSC1=N/C(=C\c2ccsc2)C(=O)S1	-0.34
COc1ccc(OC)c(-c2csc(NC(=O)CSc3ccccc3)n2)c1	4.64
CCOCCCNC(=O)c1cn(C)c(=O)c2cc(OC)c(OC)cc12	9.51
O=c1ccc(=O)n2n1CC(O)C2	13.6
CCOC(=O)C1CCN(C(=O)c2ccc3c(c2)C(=O)N(c2ccccc2C)C3=O)CC1	1.29
Cc1cc(C)c2c(N)c(S(=O)c3ccc(C(C)(C)C)cc3)sc2n1 (stereo not shown)	12.8
CC(/C=N/n1c(-c2ccccc2)n[nH]c1=S)=C\c1ccco1	14.5
Cc1cc(Cl)ccc1NC(=O)COC(=O)c1nc2nccc(C)n2n1	5.85
CCOC(=O)C1=C(C)OC(N)=C(C#N)C1c1cccs1 (stereo not shown)	12.9
COCCn1c(N)c(S(=O)(=O)c2cccs2)c2nc3ccccc3nc21	-2.64
COc1ccc(S(=O)(=O)NCCN2CCOCC2)c(C)c1C	5.93
O=C(O)[C@H](O)[C@@H](O)C(=O)O	10.4
CC(C)CNC(=O)NC(=O)COc1ccc(C=O)cc1	6.71
CCCCOc1ccc(C(=O)N/C(=C/C=C/c2ccccc2)C(=O)O)cc1	16.1

Source: publication PMC4336329 (PLoS ONE, 2015)
